Results published in PubChem BioAssay AID686970 (National Center for Advancing Translational Sciences (NCATS), 2013).
Where “and” joins values, the source holds several entries; their conditions need not be identical. Equal values may be shown once. In all, about 360,000 compounds went through this assay and about 6,000 (1.7%) were called active. The shares of active, inactive and inconclusive entries below differ from those in the screen. Calls follow the shape of the dose curve; as a rule, active = well fitted cell-killing curve with a large enough effect; inconclusive = small, poorly fitted or top-dose-only effect, or effect the other way; inactive = flat fitted curve, though single readings scatter. Where the call is inconclusive, the potency comes from a doubtful curve fit.

Assay: qHTS for induction of synthetic lethality in tumor cells producing 2HG: qHTS for the HT-1080-NT fibrosarcoma cell line;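 also: NT is the 2HG producing partner of a matched IDH1 knockdown line; nearly all actives have a fitted effect of over 55% in size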;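 as to activity, negative = less viability: 0% = DMSO-treated cells and -100% = media-only wells without cells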
Settings: HT-1080-NT fibrosarcoma viability, CellTiter-Glo ATP luminescence, 48 h; activity, negative = less viability: at 46.1 µM (top of the series) unless noted
In short: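 Viability of the 2HG-overproducing fibrosarcoma line after 48 hours of compound exposure at 37 degrees C was determined by luminescence with CellTiter-Glo, and concentration-effect curves were then fitted and categorized.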
Potency is read from the fitted curve at half-maximal effect; tags tell the direction and shape of the fitted curve.

Compound	Potency	activity, negative = less viability
CN(C)CC(CCC(CN(C)C)C(=O)c1ccccc1)C(=O)c1ccccc1 (configuration not stated)	active: 3.26 µM	–
OC(CNC1CCCCCC1)COc1cccc2ccccc12 (configuration not stated)	active: 20.6 µM	–
Cc1nn(-c2ccccc2)c2[nH]c(=O)cc(C(F)(F)F)c12	inconclusive: 29.1 µM [cytotoxic, single point]	–
O=[N+]([O-])c1nn(-c2ccccc2)n(O)c1=NC1CCN(Cc2ccccc2)CC1	–	inactive: 1.78%
COC(=O)c1ccc(Oc2ccc(C(F)(F)F)cn2)cc1	inconclusive: 32.6 µM [rising, single point]	–
Cc1cc(C)nc(NC(=O)Nc2ccccc2C(F)(F)F)n1	inconclusive: 15.8 µM [cytotoxic, single point]	–
O=C(N/N=C/c1ccc(Cl)cc1Cl)Nc1ccccc1	inconclusive: 31.6 µM [cytotoxic, single point]	–
Cc1cc(C)c2nc(SCC(=O)N3CC(=O)Nc4ccccc43)c(C#N)cc2c1	inconclusive: 0.731 µM [cytotoxic, full curve]	–
CC1CC=C(c2ccccc2)C(=S)N1 (configuration not stated)	inconclusive: 23.1 µM [cytotoxic, single point]	–
COCCCn1c(=O)c2sccc2n2c(CCCC(=O)NCc3cccc(OC)c3)nnc12	–	inactive: -0.867%
Cc1ccnc(NC(=O)c2ccccc2NC(=O)C(C)(C)C)c1	inconclusive: 8.2 µM [cytotoxic, partial curve]	–
N#Cc1cccc(-c2csc(C(O)(c3ccccc3)C(F)(F)F)n2)c1 (configuration not stated)	inconclusive: 16.4 µM [cytotoxic, single point]	–
Oc1ccc(N=Nc2nccs2)c(O)c1	inconclusive: 9.2 µM [cytotoxic, partial curve]	–
O=c1c(-c2ccccc2)c(-c2ccccc2)oc2cc(O)cc(O)c12	inconclusive: 23.1 µM [cytotoxic, single point]	–
COc1ccc(S(=O)(=O)Nc2cc3[nH]c(=O)oc3cc2C)cc1	inconclusive: 23.1 µM [cytotoxic, single point]	–
COc1cc(C=CC(=O)c2ccccc2)cc(OC)c1OC	active: 10.3 µM	–
CC(C)(C)c1ccc(C(=O)CCCSC2=C(C#N)C(c3ccco3)C3=C(CCCC3=O)N2)cc1 (configuration not stated)	inconclusive: 11.2 µM [cytotoxic, single point]	–
O=C1NC2(CCCCC2)OC12CCCCC2	–	inactive: 12%
Cc1ccc(O)c(C(=O)/C=C/c2ccc3c(c2)OCCCO3)c1	inconclusive: 29.1 µM [cytotoxic, single point]	–
O=C(NNc1ccccc1Cl)C(O)(c1cccc(C(F)(F)F)c1)c1cccc(C(F)(F)F)c1	inconclusive: 29.1 µM [cytotoxic, single point]	–
CCN(CC)CCNC(=O)c1ccc(NC(=O)c2cn(-c3ccc(F)cc3)nc2-c2cccc(OC)c2)cc1	active: 23.1 µM	–
CC(=O)Nc1ccc(NC(=O)CCCc2c[nH]c3ccccc23)cc1	–	inactive: -0.819%
O=c1c2[nH]c3ccccc3c2ncn1C1CCCCC1	–	inactive: -11.8%
COc1cc(OC)cc(C(=O)NNC(=S)Nc2ccc(S(N)(=O)=O)cc2)c1	inconclusive: 6.51 µM [cytotoxic, partial curve]	–

Compound	Potency	activity, negative = less viability
O=C(N/N=C/c1c(Cl)[nH]c2ccccc12)c1sc2ccccc2c1Cl	inconclusive: 29.1 µM [cytotoxic, single point]	–
CN(C)S(=O)(=O)c1ccc(C(=O)NCC(C)(C)N2CCOCC2)cc1	–	inconclusive: 4.13%
O=C(Nc1ccc2c(c1)oc1ccccc12)c1ccc2c(c1)OCO2	inconclusive: 20 µM [cytotoxic, single point]	–
O=C(/C=C/c1cccs1)Nc1nccs1	inconclusive: 29.1 µM [cytotoxic, single point]	–
O=C(NNc1cc(Cl)cc(Cl)c1)c1cccs1	inconclusive: 8.2 µM [cytotoxic, partial curve]	–
Cc1nnc(Cc2ccccc2)c2n[nH]c(C)c12	–	inactive: -4.3%
O=C(Nc1ccccn1)c1ccc(-c2ccccc2)cc1	inconclusive: 13 µM [cytotoxic, single point]	–
CCCCn1c(NC(=O)c2ccccc2)nc2ccccc21	inconclusive: 15.8 µM [cytotoxic, single point]	–
O=C(c1ccco1)n1c(=S)nc2ccccn21	inconclusive: 25.1 µM [cytotoxic, single point]	–
O=C(O)c1cc(-c2cccs2)[nH]n1	inconclusive: 10.3 µM [rising, partial curve]	–
CC(=O)Nc1ccc(OCC(O)CN2CCN(Cc3ccccc3)CC2)cc1 (configuration not stated)	–	inactive: 4.83%
CC1=NN(c2ccc([N+](=O)[O-])cc2)C(=O)/C1=C\N(C)C	active: 8.2 µM	–
O=C1/C(=C\c2ccccn2)SC(=S)N1Nc1ncc(C(F)(F)F)cc1Cl	–	inactive: -0.43%
COc1ccc(C(=O)Nc2oc(-c3ccccc3)c(-c3ccccc3)c2C#N)cc1	–	inactive: -28.7%
CC1CCCC(C)N1CCCNC(=O)c1ccc2c(c1)NC(=O)c1ccccc1S2 (configuration not stated)	inconclusive: 25.9 µM [cytotoxic, single point]	–
COc1cccc(NC(=O)C2(C)CCN2CCc2ccccc2)c1 (configuration not stated)	–	inactive: 8.03%
COc1ccc(OC)c(CN2CCC(C(=O)N3CCOCC3)CC2)c1	–	inactive: -5.14%
C[C@H](NC(=O)C1CCN(S(=O)(=O)c2ccccc2)CC1)C(=O)NC1CC1	–	inactive: 3.86%
O=C(NC1CC1)C1CCN(S(=O)(=O)c2ccc(Cl)c([N+](=O)[O-])c2)CC1	inconclusive: 18.4 µM [cytotoxic, single point]	–
N#C/C(=C\c1cccc(O)c1)c1nc2ccccc2o1	–	inactive: -5.44%
CCCCNc1c(-c2ccc(SC3CCCCC3)cc2)nc2cnccn12	inconclusive: 37.2 µM [cytotoxic, single point] and inconclusive: 20.6 µM [cytotoxic, single point]	–
N/N=C/C(=N\Nc1ccc(Cl)cc1)C(=O)c1ccncc1	inconclusive: 29.1 µM [cytotoxic, partial curve, poor fit]	–
Cc1ccc(-n2cc(CNCCn3nc(C)cc3C)c(-c3ccc(F)cc3)n2)cc1	active: 20.6 µM	–
CCOC(=O)c1c(C)[nH]c2c1cc(O)c1ccccc12	inconclusive: 25.1 µM [cytotoxic, single point]	–

Compound	Potency	activity, negative = less viability
O=C(CCNc1cccc(Cl)c1)c1ccco1	inconclusive: 35.5 µM [cytotoxic, single point]	–
N#Cc1ccc(CN(Nc2ccccc2)c2ccccc2)cc1	inconclusive: 29.1 µM [cytotoxic, single point]	–
COc1ccc(NC(=O)c2ccc(NC(=O)CN3CCN(c4ccccc4OC)CC3)cc2)cc1	inconclusive: 20.6 µM [cytotoxic, single point]	–
CN(C)c1ccc(C(=O)OCC(=O)c2cccs2)cc1	–	inactive: -0.981%
CCCn1c2ccccc2c2cnn(CC(=O)NCCCN3CCCCC3CC)c(=O)c21 (configuration not stated)	inconclusive: 25.9 µM [cytotoxic, single point]	–
CCc1nc2c(OCC3CCCCC3)cccn2c1N(C=O)Cc1ccc(OC)cc1	inconclusive: 18.4 µM [cytotoxic, single point]	–
COC(=O)[C@H](CC(C)C)NC(=O)N1CCC(C)CC1	–	inconclusive: 30.6%
O=C(/C=C/[C@H]1O[C@@H](n2cnc3c(NC(=O)c4ccccc4)ncnc32)[C@H](O)[C@@H]1O)NCCc1ccc(F)cc1	–	inactive: -2.86%
Cc1cc(C)c(COc2ccc(/C=N/n3c(C)n[nH]c3=S)cc2)c(C)c1	inconclusive: 20.6 µM [cytotoxic, single point]	–
CCOc1ccc(NC(=O)c2cc([N+](=O)[O-])ccc2N2CCOCC2)cc1	inconclusive: 29.1 µM [cytotoxic, single point]	–
COc1ccc(N2CCN(C(=O)CN(c3ccc(Br)cc3)S(C)(=O)=O)CC2)cc1	–	inconclusive: -33.2% [cytotoxic]
O=C(Nc1ccccc1O)C(c1ccccc1)c1ccccc1	inconclusive: 18.4 µM [cytotoxic, single point]	–
COc1ccc(CC(N)c2csc(NC(=O)c3ccc(OC)cc3)n2)cc1 (configuration not stated)	inconclusive: 20.6 µM [cytotoxic, single point]	–
O=c1[nH]c(C2CCN(S(=O)(=O)c3ccccc3)CC2)nc2c1nnn2Cc1cccc(Cl)c1	inconclusive: 20.6 µM [cytotoxic, single point]	–
Cc1ccc(C)c(S(=O)(=O)Nc2ccc(O)c3ccccc23)c1	–	inactive: -12.2%
Cc1cc(C)n(-c2cc(N3CCN(S(=O)(=O)c4ccc(C)c(C)c4)CC3)ccc2[N+](=O)[O-])n1	–	inactive: -6.62%
O=C(Nc1ccccc1)c1cccc(N2CCCC2=O)c1	–	inactive: -0.919%
O=c1cc(O)c2sc(Nc3ccc(Cl)c(F)c3)nc2[nH]1	–	inactive: -0.525%
O=C(NCc1cccc(Cl)c1)C1Cc2c(-c3cccc(F)c3)ccnc2O1 (configuration not stated)	inconclusive: 18.4 µM [cytotoxic, single point]	–
COc1ccc(/C=N/NC(=O)c2nc(-c3ccccc3)cc(-c3ccccc3)n2)cc1O	inconclusive: 23.1 µM [cytotoxic, single point]	–
Cc1c(C(=O)OCC(=O)NCCN2C(=O)CSC2=O)cccc1[N+](=O)[O-]	–	inconclusive: 3.92%
COc1ccc(S(=O)(=O)N2CCN(c3ccc4nnc(-c5ccc(F)cc5)n4n3)CC2)cc1	–	inactive: -20.9%
Cc1ccccc1Cn1cc(NC(=O)c2noc3c2CC(C(C)(C)C)CC3)cn1 (configuration not stated)	inconclusive: 35.5 µM [cytotoxic, single point]	–
CSc1ccc(CN2CCC(Oc3ccc(C(=O)N4CCCC4)cc3)CC2)cc1	inconclusive: 29.1 µM [cytotoxic, single point]	–
